The values that follow come from the RNAGym collection of RNA variant scans (doi:10.7554/elife.90254).

Read counts are not given, so values of variants with three or more changes are uncertain.

B1: LINE1-mini (parent)
chain: GGCAGAGCUCAACACAGCGUGGCAAAGUGGCUGUGGCUAGACUGCC

In the data set the parent is B1. As to the kind of experiment: self-cleavage, relative activity (ratio to wild type); higher = more cleavage; in vitro, sequencing; the parent is a self-cleaving ribozyme.
Regarding G2A C8A C10U C23A G33U, the self-cleavage came out at 0.09.
Take G2A C23U A24U C37A: the self-cleavage amounted to 0.16.
On to G2A C15A G17C, for which the self-cleavage worked out at 0.21.
For the variant G2A C15A G17A G27A, the self-cleavage was determined as 0.48.
For G2A C8G C23G A26U U34C, the self-cleavage is 0.2.
To G2A A24C G30C C46A belongs 0.11.
For G2A A11C G19C A25U A41C, the self-cleavage came out at 0.01.
Turning to G2A C8U G21U C46G, the self-cleavage stood at 0.26.
Take G2A A25U G35U: the self-cleavage was 0.45.
As for G2A C3G G7A A12G U32A C37A U38G C46G, the self-cleavage was 0.08.
As to G2A C3G C13A G22U C37G, the self-cleavage is 0.18.
Turning to G2A A11C G22U G29C G36A U43C C46U, the self-cleavage stood at 0.02.
Turning to G2A C31U G44A, the self-cleavage came out at 0.11.
Regarding G2A C8A A41U, the self-cleavage is 0.83.
For G2A A41C C45A, the self-cleavage is 0.06.
In the case of G2A C13G G35C A39G, the self-cleavage amounted to 0.03.
Regarding G2A A11U C42A, the self-cleavage came out at 0.03.
Regarding G2A C31U G36C G40U, the self-cleavage was 0.08.
Turning to G2A C10G A11G G17C G29A G36U, the self-cleavage was determined as 0.03.
As for G2A C10A C31G, the self-cleavage is 0.03.
As for G2A A11U G33U U38A, the self-cleavage worked out at 0.04.
In the case of G2A C8U G40U, the self-cleavage amounted to 0.13.
As for G2A C13A C15G G22U A26C, the self-cleavage came to 0.05.
With G2A A12G C37G the figure was 0.2; with G2A C18G G35C, 0.11.
G2A C8U A24U U28G: the self-cleavage amounted to 0.2.
Consider G2A C8A C13U G29A G35C C37U C46U, for which the self-cleavage stood at 0.22.
On to G2A A6U U20A G40U, for which the self-cleavage amounted to 0.09.
For G2A C10A U20G C23U G35A A41U C42G, the self-cleavage is 0.02.
As to G2A A11C U38C C46G, the self-cleavage was determined as 0.02.
As for G2A G5A G22U G40C, the self-cleavage is 0.47.
With G2A C15U A24G, the self-cleavage came out at 0.3.
Take G2A A14U C37G G44C: the self-cleavage was found to be 0.19.
Consider G2A C3U C10A A14C A39G, for which the self-cleavage stood at 0.04.
As for G2A A11U C23A G27A G35A G36U C45A, the self-cleavage came to 0.03.
Take G2A C18G G33A: the self-cleavage amounted to 0.08.
Regarding G2A C13A G30U C46G, the self-cleavage is 0.26.
G2A C15U G21A U34G: the self-cleavage worked out at 0.06.
Take G2A C15U A16C A41C U43A: the self-cleavage amounted to 0.03.
Regarding G2A C10A A16C G19U, the self-cleavage was determined as 0.06.
Consider G2A A16G G22C C23A, for which the self-cleavage was 0.09.
For G2A C13A C18A, the self-cleavage stood at 0.03.
For the variant G2A C15A C18G C23U, the self-cleavage worked out at 0.08.
As for G2A C15G U28C C46G, the self-cleavage came out at 0.
With G2A C3G A12G G35C, the self-cleavage was 0.22.
In the case of G2A A14G A41G, the self-cleavage was 0.09.
For the variant G2A A11U A24U G35A, the self-cleavage is 0.01.
With G2A G5U C8G G17U U32G A41G the figure was 0.02.
With G2A C15G A16G G17C C18A G27C G33U the figure was 0.05.
Take G2A C8A C18U G22C G27A: the self-cleavage was 1.42.
For the variant G2A A12G U20A G36U, the self-cleavage was found to be 0.03.
On to G2A C10A A24G U38G C46G, for which the self-cleavage turned out to be 0.08.
With G2A A16U G22U the figure was 0.44; with G2A C23U C31U A39G, 0.13; with G2A C8A G33C, 0.12.
As to G2A C3A C8G U9C C15A A24C C31U C42U C45U, the self-cleavage is 0.04.
With G2A A24G G33C the figure was 0.04.
On to G2A C15G U20A C31A U43C, for which the self-cleavage worked out at 0.02.
As to G2A A25G U38A C46A, the self-cleavage is 0.09.
With G2A C3G A11C G19U U43C, the self-cleavage was 0.03.
For the variant G2A C13U C31A, the self-cleavage came out at 0.3.
With G2A C18A C45A, the self-cleavage was 1.06.
Turning to G2A C8A G40U, the self-cleavage stood at 0.52.
G2A C15A U34C: the self-cleavage was 0.03.
With G2A C18U U20A, the self-cleavage was 0.24.
Take G2A A26C G35U: the self-cleavage is 0.12.
Take G2A C10A C23G G33U G36C: the self-cleavage worked out at 0.04.
With G2A A12U C15A A16U, the self-cleavage is 0.15.
As for G2A A14U G27C G40A C45U, the self-cleavage came out at 0.02.
Consider G2A C10U A11U G21A, for which the self-cleavage amounted to 0.08.
Consider G2A G5U A16C U20G U32G U34A, for which the self-cleavage is 0.04.
In the case of G2A C8A A26G, the self-cleavage turned out to be 0.38.
Turning to G2A C10A C13U, the self-cleavage stood at 0.02.
For the variant G2A C15G C18G A24C G27A, the self-cleavage came out at 0.17.
Turning to G2A C8U A11G A14U G19U G21U C42A C45A C46G, the self-cleavage was 0.01.
Consider G2A C8U G36C U38G, for which the self-cleavage is 0.47.
On to G2A C8A G35U, for which the self-cleavage was found to be 0.07.
On to G2A C13G G40U A41U, for which the self-cleavage amounted to 0.14.
On to G2A G5U A11C A14U G30A C37U A39U, for which the self-cleavage was found to be 0.03.
For G2A G5C U20C U28A, the self-cleavage was found to be 0.16.
With G2A G5C G7U the figure was 0.46; with G2A A26U A39C, 0.11.
With G2A C8A A25C G33A the figure was 0.13; with G2A A12U A26G U43C, 0.04.
As for G2A C31A U38C, the self-cleavage worked out at 0.17.
For the variant G2A C10A A12U G35A, the self-cleavage is 0.05.
Regarding G2A A24U A25U, the self-cleavage was determined as 0.74.
Turning to G2A C8G U9A C46A, the self-cleavage worked out at 1.48.
With G2A A14C C18A G19U G21U C42G, the self-cleavage worked out at 0.04.
Take G2A C18A C31A G40A: the self-cleavage was found to be 0.03.
Turning to G2A A11U G17A C45G, the self-cleavage came to 0.03.
G2A A11C C13A G40U: the self-cleavage stood at 0.03.
With G2A C3A A6U G36U G40U C45U the figure was 1.31.
For G2A A11C C13U, the self-cleavage was 0.07.
As for G2A C3A A25C G30C, the self-cleavage was determined as 0.92.
With G2A C3U G7U C46A, the self-cleavage came out at 0.2.
G2A C3U C18G: the self-cleavage was 0.11.
In the case of G2A C10U G21C A41C, the self-cleavage turned out to be 0.02.
As to G2A C8A C13G U20C A24U, the self-cleavage is 0.35.
As for G2A A16G C31A, the self-cleavage turned out to be 0.13.
G2A C3U A39U C42A: the self-cleavage came to 0.13.
With G2A C10U G19A G36C A41C the figure was 0.05.
In the case of G2A C3A C37G U43A, the self-cleavage is 0.33.
For G2A C42G C45U, the self-cleavage is 0.15.
Take G2A C18G C31U C45U: the self-cleavage amounted to 0.04.
G2A C13U A25G: the self-cleavage was found to be 0.16.
Regarding G2A C42A C46U, the self-cleavage was found to be 0.14.
Take G2A G5C A25C U28C: the self-cleavage turned out to be 0.06.
In the case of G2A C3G U38A A39G U43A, the self-cleavage came out at 0.61.
As to G2A C3A A14U C18U G27A, the self-cleavage was found to be 0.69.
As to G2A C10U A12C G35U, the self-cleavage is 0.01.
With G2A C3U A11C G21A C37U the figure was 0.04; with G2A C10A A11C C18U A25C G29U, 0.01.
With G2A C23G C42A the figure was 0.49; with G2A C3G A4U G44A, 0.34.
With G2A A12C G19A C46A the figure was 0.06.
Consider G2A C10U G33A G36A, for which the self-cleavage worked out at 0.03.
As to G2A C8G A12U A41U, the self-cleavage came to 0.14.
For G2A C15A G33C U34C, the self-cleavage was found to be 0.14.
Take G2A C3U G5A G29A G44C: the self-cleavage was determined as 0.08.
As to G2A A16U U34C, the self-cleavage amounted to 0.32.
G2A C13U A16U C45A: the self-cleavage is 0.4.
Regarding G2A C13U A16U C45U, the self-cleavage was 0.2.
With G2A C8G A14C, the self-cleavage was found to be 0.08.
To G2A C13G C23G belongs 0.92.
Take G2A A12C A25U A26G: the self-cleavage turned out to be 0.03.
Turning to G2A A14C G29A U32C G40A, the self-cleavage came to 0.19.
To G2A C15G G17U G33A C42G U43A belongs 0.06; to G2A A14U G19A A25G, 0.07; to G2A G5C U32C, 0.01.
Turning to G2A C23U U34A, the self-cleavage was determined as 0.24.
Regarding G2A A11G G35U, the self-cleavage is 0.03.
As for G2A C31A G33U, the self-cleavage was 0.16.
Consider G2A C15A A25U C31G U34C A39U, for which the self-cleavage came out at 0.29.
For G2A C10U G36C, the self-cleavage was found to be 0.03.
To G2A C10U G21A G27A belongs 0.13; to G2A A11U C13A A14G G22U G33A, 0.04.
Take G2A A26U U34G: the self-cleavage was 0.25.
Turning to G2A G5C G17C G22A G29A C45G C46G, the self-cleavage is 0.03.
Consider G2A C18U A41G, for which the self-cleavage stood at 0.1.
On to G2A C10A A24G C45U, for which the self-cleavage is 0.17.
For G2A C10U C23U, the self-cleavage amounted to 0.6.
Consider G2A C3U G29A U32G, for which the self-cleavage worked out at 0.24.
With G2A C8A C10U U34C G35A C45G the figure was 0.23; with G2A C10U A14U, 0.11; with G2A A14U C18U G27C U28C C46G, 0.08.
As for G2A C13G A14U A24U G27U G33A U43G, the self-cleavage is 0.01.
On to G2A C8U C15U G35C, for which the self-cleavage was 0.32.
Regarding G2A C3A C42U, the self-cleavage was found to be 0.84.
For G2A C8A G17A, the self-cleavage is 0.16.
With G2A C10U G35A A41G the figure was 0.09.
Consider G2A A12U U34C G35C C45A, for which the self-cleavage stood at 0.01.
Regarding G2A C15A G33A G35A, the self-cleavage was 0.04.
With G2A A12U G17C A26C the figure was 0.29; with G2A A26G G27U A41G, 0.25.
Take G2A G5A C15U G36C: the self-cleavage is 0.36.
With G2A A11U A24C G44A, the self-cleavage is 0.02.
In the case of G2A C3G C13G, the self-cleavage came out at 0.06.
As to G2A C13U G21C A25G U32C A41U, the self-cleavage was determined as 0.02.
With G2A G5U C8A C18A the figure was 1.85; with G2A C10G A12U G30U, 0.02; with G2A A16G U38A, 0.04.
As for G2A C10G G33A A41U, the self-cleavage is 0.03.
On to G2A C8G A26G G33U C37G, for which the self-cleavage stood at 0.03.
In the case of G2A C37A C46G, the self-cleavage came out at 0.2.
In the case of G2A A12C C23A G33A C46U, the self-cleavage was found to be 0.13.
Regarding G2A C13U U20A G27U, the self-cleavage was found to be 0.31.
